Some of the results follow. The list includes weakly bound sequences.

The target in the assay is MaxL homodimer (UniProt P61244). Nature of the assay: universal protein-binding microarray (PBM). The conditions noted are these: PBS-based mixture, 10 nM His-tagged protein dimer, 2% milk, 200 ng/uL BSA, 50 ng/uL salmon testes DNA, 0.02% TX-100; detection with Alexa 488 anti-His …; high values mean tight binding; most listed sequences are background and not binding sites; double strand, one strand shown.
Chain of UniProt P61244 (P61244 whole entry): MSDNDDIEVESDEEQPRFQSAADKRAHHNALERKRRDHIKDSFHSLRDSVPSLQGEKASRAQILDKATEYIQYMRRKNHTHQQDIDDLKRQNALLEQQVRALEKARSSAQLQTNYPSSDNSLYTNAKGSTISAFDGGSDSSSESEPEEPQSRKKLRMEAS
Turning to CAGACAAA, the binding signal (normalized occupancy) came out at 0.0757. Consider ATCTGACG, for which the binding signal (normalized occupancy) came out at 0.0758. For AAGCAATC, the binding signal (normalized occupancy) came to 0.0752. Consider CTTCTCGA, for which the binding signal (normalized occupancy) stood at 0.0732. In the case of ACTCCGTG it was 0.0724; in that of CATGCGGA, 0.126.

As for CCCCTCGG, the binding signal (normalized occupancy) amounted to 0.0692.

In the case of ATGGTTAG, the binding signal (normalized occupancy) stood at 0.0784.

As to AATGTAAT, the binding signal (normalized occupancy) is 0.0765. As for CTTTAACC, the binding signal (normalized occupancy) is 0.0757. With CCATATTC the figure was 0.085; with TACTTCAA, 0.0827. In the case of CGCCTTAA it was 0.0761; in that of ACGAGTTA, 0.0814; in that of ACAGGAGC, 0.0731. With GGGCAAAC the figure was 0.0702; with CCAGTAAA, 0.0769; with AATGTACG, 0.0761. Consider TTAAATAA, for which the binding signal (normalized occupancy) came to 0.0725. With ACTGAGCC the figure was 0.0708; with CCGTTCGA, 0.0695; with AGGATCGG, 0.0726.

In the case of CGAGCACC, the binding signal (normalized occupancy) came out at 0.0724.

Regarding ACAGTAAG, the binding signal (normalized occupancy) is 0.0785. With CGTACTTC the figure was 0.0758. With CATATGGG, the binding signal (normalized occupancy) came out at 0.103. For the sequence CAGGTTCG, the binding signal (normalized occupancy) is 0.0717. With CCACACGA the figure was 0.0959; with CTATGGAC, 0.0754. In the case of GGATACCC it was 0.0788. For the sequence CGGGATTA, the binding signal (normalized occupancy) amounted to 0.0803. As to CTTCGCTC, the binding signal (normalized occupancy) turned out to be 0.0654. In the case of CGGATAAC, the binding signal (normalized occupancy) is 0.0734. In the case of AGGAGCAT it was 0.0811. In the case of CGGTTTAC it was 0.0706; in that of GAGATCGC, 0.0757.

CCAAATGA: the binding signal (normalized occupancy) amounted to 0.084. With AAGGCCGA the figure was 0.0677. In the case of ATTTTCAC, the binding signal (normalized occupancy) was determined as 0.0778. With CTAACTTC the figure was 0.0674; with ACTATGGC, 0.0742.

In the case of CACCTGCC, the binding signal (normalized occupancy) is 0.0849. With CAACTCTC the figure was 0.0734. With AGTCATTC the figure was 0.077; with ACTTCGCA, 0.0712; with GTACCTAA, 0.0754. With AATTTTGT the figure was 0.0774; with CCCTTGGA, 0.0711. As for ACCTCTCT, the binding signal (normalized occupancy) stood at 0.0709. Turning to AACTACGT, the binding signal (normalized occupancy) is 0.0709. As for CGGACGGC, the binding signal (normalized occupancy) was found to be 0.0679. In the case of ATTCAAGG it was 0.0807.

Regarding CCTTCCCG, the binding signal (normalized occupancy) was 0.0723. In the case of GCCGCACA it was 0.0809; in that of GTTTATCA, 0.0816. With CAGAGATG the figure was 0.0757. In the case of AGTTATGA it was 0.0764. With AACTGCAT, the binding signal (normalized occupancy) was 0.0812.

Consider ACGCTTAT, for which the binding signal (normalized occupancy) is 0.0836. For the sequence ACCATTAT, the binding signal (normalized occupancy) amounted to 0.0776.

Regarding CCCATGCA, the binding signal (normalized occupancy) was 0.0973. Take GAAAGTGC: the binding signal (normalized occupancy) was found to be 0.0697. Regarding GTACTTTA, the binding signal (normalized occupancy) is 0.0737. For the sequence ACGACGCA, the binding signal (normalized occupancy) is 0.0777.

In the case of GAACAGGA, the binding signal (normalized occupancy) is 0.0687. With ACGCAATG the figure was 0.0807; with CGCCCGTA, 0.0686. With ATTGCCCG the figure was 0.0725; with GCCACAGA, 0.074. With GAATTGAA the figure was 0.0748; with CCCACTAG, 0.0799; with AAGTCAAT, 0.0734. In the case of GCTGCGAC, the binding signal (normalized occupancy) worked out at 0.0673. As to TGGAGTAA, the binding signal (normalized occupancy) was found to be 0.0759.

As for ACTAGGGG, the binding signal (normalized occupancy) came out at 0.0739. Regarding TCACTAGA, the binding signal (normalized occupancy) was determined as 0.0761. On to CGGCCGAA, for which the binding signal (normalized occupancy) worked out at 0.0638. In the case of AGTGACTC, the binding signal (normalized occupancy) amounted to 0.0781. With CAATCTGG the figure was 0.0721; with CTGGTGTC, 0.0735; with GGCAAAAA, 0.0715.

As for GGTGCGGA, the binding signal (normalized occupancy) is 0.0762.

For CTAGCACA, the binding signal (normalized occupancy) was found to be 0.0827. In the case of CCTACTTC, the binding signal (normalized occupancy) is 0.0742. With TGTCTGAA the figure was 0.0757; with TAGCCGCA, 0.0715; with CACTCCAA, 0.0714. In the case of AGCAGCCG, the binding signal (normalized occupancy) came out at 0.0667.

For the sequence GACGCTAC, the binding signal (normalized occupancy) stood at 0.0742. In the case of AATTGAAA it was 0.0772; in that of ATGCGTAG, 0.0832. GAAACTAA: the binding signal (normalized occupancy) came to 0.0734. With CATGTTCA the figure was 0.0945; with AATTAGAC, 0.0741. With CACCCGAC the figure was 0.0792; with AACGTCGT, 0.0757; with AGCCAACC, 0.0796.

With ATGTTCTG, the binding signal (normalized occupancy) was found to be 0.0788. With CGTGGCTC the figure was 0.0897.

As to ACGGCAAT, the binding signal (normalized occupancy) was found to be 0.0756. With ACATGTAC the figure was 0.0958; with CTACGACC, 0.0759.

In the case of GCCATTTA, the binding signal (normalized occupancy) turned out to be 0.0786. With ATCTAAAT the figure was 0.0782.

GAAAGAAC: the binding signal (normalized occupancy) stood at 0.072. In the case of GTTAGCTA it was 0.0688.

As to AAGTAAAG, the binding signal (normalized occupancy) worked out at 0.0722.

Turning to ACAACCCG, the binding signal (normalized occupancy) stood at 0.0778. In the case of ACACACCG it was 0.0873.

As for ATGTTTCC, the binding signal (normalized occupancy) was 0.0815. In the case of GTGCAATA it was 0.0814; in that of ATAAAGTA, 0.0811. CCCTGATA: the binding signal (normalized occupancy) came to 0.0785.

For ACGGATTG, the binding signal (normalized occupancy) is 0.0707. AGATACCA: the binding signal (normalized occupancy) amounted to 0.0785.

ATTATAAC: the binding signal (normalized occupancy) was found to be 0.0853. For the sequence GAAGGCGA, the binding signal (normalized occupancy) came out at 0.0722.

For ACGCGCAC, the binding signal (normalized occupancy) stood at 0.0905. Take CCGAGAAC: the binding signal (normalized occupancy) is 0.072. With AGTCTTTA the figure was 0.0693.

Consider CAACTTAC, for which the binding signal (normalized occupancy) was found to be 0.0722. In the case of TCCACGCA it was 0.0885; in that of AAACTATC, 0.0729. In the case of CTTGTTAA it was 0.0714. As to CCCAGTCC, the binding signal (normalized occupancy) was determined as 0.0735.

In the case of GAATATGC, the binding signal (normalized occupancy) worked out at 0.0796.

For the sequence GTGAAATA, the binding signal (normalized occupancy) turned out to be 0.0831. In the case of ATCAAGCC it was 0.0768; in that of AGCGTCTA, 0.074.

Take CAACTGAC: the binding signal (normalized occupancy) came out at 0.0728. Consider ACGTACCC, for which the binding signal (normalized occupancy) amounted to 0.0848. In the case of CCCTAGGG it was 0.0737. In the case of GCCCCAGA it was 0.0694; in that of AAAATGGA, 0.077; in that of CTCCTGCC, 0.0678. With AGTTAAAC the figure was 0.0711; with GACAAAAC, 0.0749; with CTCAGAAA, 0.0748. As for AGACGGGC, the binding signal (normalized occupancy) turned out to be 0.0682. With AGCGCAGC the figure was 0.0625; with CACTTAGG, 0.0772. With AGAATAGC the figure was 0.0772. With CACGCCTA the figure was 0.0938; with ACGTGCCC, 0.0948; with CCGTGTTC, 0.0725.

Regarding GAAGACCC, the binding signal (normalized occupancy) was determined as 0.0707. Regarding AGCACTAA, the binding signal (normalized occupancy) was determined as 0.0729.

Consider CCGTTTCG, for which the binding signal (normalized occupancy) worked out at 0.0661. Turning to GGGTTAGA, the binding signal (normalized occupancy) came to 0.084. In the case of CCGATCAC it was 0.0768; in that of CTTCAGTA, 0.0695; in that of ATACGCTC, 0.0788. In the case of CCAAGCCG it was 0.074; in that of GGCGCCTA, 0.07; in that of GCCCGGGA, 0.0647.

As to AGGCGTAG, the binding signal (normalized occupancy) amounted to 0.0687. For AGAGCTCA, the binding signal (normalized occupancy) was 0.0694. In the case of CGAAGGGC it was 0.0673. In the case of CGACTACG it was 0.0719. For CCTGGATC, the binding signal (normalized occupancy) worked out at 0.0772. In the case of CTCCCGCC it was 0.0726; in that of GAATATCC, 0.0768. Take AAGTCATT: the binding signal (normalized occupancy) is 0.0758. Regarding TGTCAACA, the binding signal (normalized occupancy) turned out to be 0.0819. With GAAGCTAC, the binding signal (normalized occupancy) was found to be 0.0686. With GTTGCCCA the figure was 0.0762; with AGGGACGG, 0.0686; with GCTGTACA, 0.0814.

In the case of ACGGTCGG, the binding signal (normalized occupancy) was found to be 0.0723. In the case of CTCACATA it was 0.0818; in that of CTGACCGA, 0.0725. Consider ATTCGCTC, for which the binding signal (normalized occupancy) is 0.0757.

Source of the values: publication PMC4242493.
